# The other results are listed elsewhere or left out.
# B1: PX15618B-bfa-464-25-464 (Bacteroides fragilis) (protein)
# chain: DQEPPLYVNENDIFTSPTRIEATLNGLYAAIKNTGTKSLMGGKSYLVFDNRGDDVINISNNLVTLFNTYNMNVGITDAENADTWTYAYLAINKVNTFLQSLEGAREVAGENYDRYVQEAKFVRALAYYYLNNLYPTPYSVNPDAKSVPLRLTAEAGTENNNMPRSTVKQIYEHILSDLENISALDTEVNTYTGVTHATQAAANMLKMRVYMAMNEWDKAITAGELVTGYSLPEDVTLIYKAPYFSQESIFSLPMADTNIPNTQQSLAEYYYDGKIMLIDTKSGIMSKPDYSLATDKRIIAFKGEKDLLMKFTDAKTKLQWVPIFRYAETLLDLAECYANKAGGEATAKSLLKQVRGRSVDAATDPLNIDNLSGDALKEAIYNEKRLEFIGEGIRGIDIMRRGEHFIKVGENETINVGPSDEKYTWPIPQVELLLNKDINK
# Assays:
# Experiment in all cases: glycan array binding signal (z-score within array); higher = stronger binding
# Conditions in all cases: glycan notation: IUPAC condensed, linker removed
# [1] = target: Fuc(a1-2)Gal6S(b1-3)GlcNAc6S
# How it was run: (§1)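 The binding signal is a Z-score computed within each array. Data were drawn from 3228 arrays in the Consortium for Functional Glycomics database, restricted to those with a known protein sequence. Scores were averaged over arrays of the same protein sequence at different concentrations or buffers, and over linkers, and negative values can be taken as non-binding.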
# Fuc(a1-2)Gal6S(b1-4)Glc = target: Fuc(a1-2)Gal6S(b1-4)Glc
# How it was run: as §1
# [2] = target: Fuc(a1-2)Gal6S(b1-4)Glc6S
# How it was run: as §1
# Fuc(a1-2)[Gal(a1-3)]Gal = target: Fuc(a1-2)[Gal(a1-3)]Gal
# How it was run: as §1
# [3] = target: Fuc(a1-2)[Gal(a1-3)]Gal(b1-3)GalNAc
# How it was run: as §1
# [4] = target: Fuc(a1-2)[Gal(a1-3)]Gal(b1-3)GalNAc(b1-3)Gal(a1-4)Gal(b1-4)Glc
# How it was run: as §1
# [5] = target: Fuc(a1-2)[Gal(a1-3)]Gal(b1-3)GlcNAc
# How it was run: as §1
# [6] = target: Fuc(a1-2)[Gal(a1-3)]Gal(b1-3)GlcNAc(b1-2)Man(a1-3)[Fuc(a1-2)[Gal(a1-3)]Gal(b1-3)GlcNAc(b1-2)Man(a1-6)]Man(b1-4)GlcNAc(b1-4)GlcNAc
# How it was run: as §1
# [7] = target: Fuc(a1-2)[Gal(a1-3)]Gal(b1-3)GlcNAc(b1-2)Man(a1-3)[Fuc(a1-2)[Gal(a1-3)]Gal(b1-3)GlcNAc(b1-2)Man(a1-6)]Man(b1-4)GlcNAc(b1-4)[Fuc(a1-6)]GlcNAc
# How it was run: as §1
# [8] = target: Fuc(a1-2)[Gal(a1-3)]Gal(b1-3)GlcNAc(b1-3)GalNAc
# How it was run: as §1
# [9] = target: Fuc(a1-2)[Gal(a1-3)]Gal(b1-3)GlcNAc(b1-6)GalNAc
# How it was run: as §1
# [10] = target: Fuc(a1-2)[Gal(a1-3)]Gal(b1-4)Glc
# How it was run: as §1
# [11] = target: Fuc(a1-2)[Gal(a1-3)]Gal(b1-4)GlcNAc
# How it was run: as §1
# [12] = target: Fuc(a1-2)[Gal(a1-3)]Gal(b1-4)GlcNAc(b1-2)Man
# How it was run: as §1
# [13] = target: Fuc(a1-2)[Gal(a1-3)]Gal(b1-4)GlcNAc(b1-2)Man(a1-3)[Fuc(a1-2)[Gal(a1-3)]Gal(b1-4)GlcNAc(b1-2)Man(a1-6)]Man(b1-4)GlcNAc(b1-4)GlcNAc
# How it was run: as §1
# [14] = target: Fuc(a1-2)[Gal(a1-3)]Gal(b1-4)GlcNAc(b1-2)Man(a1-3)[Fuc(a1-2)[Gal(a1-3)]Gal(b1-4)GlcNAc(b1-2)Man(a1-6)]Man(b1-4)GlcNAc(b1-4)[Fuc(a1-6)]GlcNAc
# How it was run: as §1
# [15] = target: Fuc(a1-2)[Gal(a1-3)]Gal(b1-4)GlcNAc(b1-3)GalNAc
# How it was run: as §1
# [16] = target: Fuc(a1-2)[Gal(a1-3)]Gal(b1-4)GlcNAc(b1-3)[Fuc(a1-2)[Gal(a1-3)]Gal(b1-4)GlcNAc(b1-6)]GalNAc
# How it was run: as §1
# [17] = target: Fuc(a1-2)[Gal(a1-3)]Gal(b1-4)GlcNAc(b1-6)GalNAc
# How it was run: as §1
# [18] = target: Fuc(a1-2)[Gal(a1-3)]Gal(b1-4)[Fuc(a1-3)]Glc
# How it was run: as §1
# [19] = target: Fuc(a1-2)[Gal(a1-3)]Gal(b1-4)[Fuc(a1-3)]GlcNAc
# How it was run: as §1
# [20] = target: Fuc(a1-2)[Gal(a1-3)]Gal(b1-4)[Fuc(a1-3)]GlcNAc(b1-3)GalNAc
# How it was run: as §1
# [21] = target: Fuc(a1-2)[Gal(a1-4)]Gal(b1-4)GlcNAc
# How it was run: as §1
# [22] = target: Fuc(a1-2)[GalNAc(a1-3)]Gal
# How it was run: as §1
# [23] = target: Fuc(a1-2)[GalNAc(a1-3)]Gal(b1-3)GalNAc(a1-3)[Fuc(a1-2)]Gal(b1-4)GlcNAc
# How it was run: as §1
# [24] = target: Fuc(a1-2)[GalNAc(a1-3)]Gal(b1-3)GalNAc(b1-3)Gal(a1-4)Gal(b1-4)Glc
# How it was run: as §1
# [25] = target: Fuc(a1-2)[GalNAc(a1-3)]Gal(b1-3)GlcNAc
# How it was run: as §1
# [26] = target: Fuc(a1-2)[GalNAc(a1-3)]Gal(b1-3)GlcNAc(b1-2)Man(a1-3)[Fuc(a1-2)[GalNAc(a1-3)]Gal(b1-3)GlcNAc(b1-2)Man(a1-6)]Man(b1-4)GlcNAc(b1-4)GlcNAc
# How it was run: as §1
# [27] = target: Fuc(a1-2)[GalNAc(a1-3)]Gal(b1-3)GlcNAc(b1-2)Man(a1-3)[Fuc(a1-2)[GalNAc(a1-3)]Gal(b1-3)GlcNAc(b1-2)Man(a1-6)]Man(b1-4)GlcNAc(b1-4)[Fuc(a1-6)]GlcNAc
# How it was run: as §1
# [28] = target: Fuc(a1-2)[GalNAc(a1-3)]Gal(b1-3)GlcNAc(b1-3)GalNAc
# How it was run: as §1
# [29] = target: Fuc(a1-2)[GalNAc(a1-3)]Gal(b1-3)GlcNAc(b1-6)GalNAc
# How it was run: as §1
# [30] = target: Fuc(a1-2)[GalNAc(a1-3)]Gal(b1-4)Glc
# How it was run: as §1
# [31] = target: Fuc(a1-2)[GalNAc(a1-3)]Gal(b1-4)GlcNAc
# How it was run: as §1
# [32] = target: Fuc(a1-2)[GalNAc(a1-3)]Gal(b1-4)GlcNAc(b1-2)Man
# How it was run: as §1
# [33] = target: Fuc(a1-2)[GalNAc(a1-3)]Gal(b1-4)GlcNAc(b1-2)Man(a1-3)[Fuc(a1-2)[GalNAc(a1-3)]Gal(b1-4)GlcNAc(b1-2)Man(a1-6)]Man(b1-4)GlcNAc(b1-4)GlcNAc
# How it was run: as §1
# [34] = target: Fuc(a1-2)[GalNAc(a1-3)]Gal(b1-4)GlcNAc(b1-2)Man(a1-3)[Fuc(a1-2)[GalNAc(a1-3)]Gal(b1-4)GlcNAc(b1-2)Man(a1-6)]Man(b1-4)GlcNAc(b1-4)[Fuc(a1-6)]GlcNAc
# How it was run: as §1
# [35] = target: Fuc(a1-2)[GalNAc(a1-3)]Gal(b1-4)GlcNAc(b1-3)Gal(b1-4)GlcNAc
# How it was run: as §1
# [36] = target: Fuc(a1-2)[GalNAc(a1-3)]Gal(b1-4)GlcNAc(b1-3)Gal(b1-4)GlcNAc(b1-3)Gal(b1-4)GlcNAc
# How it was run: as §1
# [37] = target: Fuc(a1-2)[GalNAc(a1-3)]Gal(b1-4)GlcNAc(b1-3)GalNAc
# How it was run: as §1
# [38] = target: Fuc(a1-2)[GalNAc(a1-3)]Gal(b1-4)GlcNAc(b1-3)[Fuc(a1-2)[GalNAc(a1-3)]Gal(b1-4)GlcNAc(b1-6)]GalNAc
# How it was run: as §1
# [39] = target: Fuc(a1-2)[GalNAc(a1-3)]Gal(b1-4)GlcNAc(b1-6)GalNAc
# How it was run: as §1
# [40] = target: Fuc(a1-2)[GalNAc(a1-3)]Gal(b1-4)[Fuc(a1-3)]GlcNAc
# How it was run: as §1
# [41] = target: Fuc(a1-2)[GalNAc(a1-3)]Gal(b1-4)[Fuc(a1-3)]GlcNAc(b1-3)GalNAc
# How it was run: as §1
# [42] = target: Fuc(a1-2)[GalNAc(a1-4)]Gal(b1-4)GlcNAc
# How it was run: as §1
# [43] = target: Fuc(a1-2)[GalNAc(b1-3)]Gal
# How it was run: as §1
binder,measurement,setting,value
B1,glycan array binding signal (z-score),[1],-0.134
same,glycan array binding signal (z-score),Fuc(a1-2)Gal6S(b1-4)Glc,-0.446
same,glycan array binding signal (z-score),[2],-0.329
same,glycan array binding signal (z-score),Fuc(a1-2)[Gal(a1-3)]Gal,0.473
same,glycan array binding signal (z-score),[3],0.234
same,glycan array binding signal (z-score),[4],0.194
same,glycan array binding signal (z-score),[5],-0.436
same,glycan array binding signal (z-score),[6],-0.235
same,glycan array binding signal (z-score),[7],0.14
same,glycan array binding signal (z-score),[8],-0.254
same,glycan array binding signal (z-score),[9],0.041
same,glycan array binding signal (z-score),[10],0.219
same,glycan array binding signal (z-score),[11],0.138
same,glycan array binding signal (z-score),[12],-0.671
same,glycan array binding signal (z-score),[13],1.41
same,glycan array binding signal (z-score),[14],-0.101
same,glycan array binding signal (z-score),[15],0.508
same,glycan array binding signal (z-score),[16],0.083
same,glycan array binding signal (z-score),[17],-0.501
same,glycan array binding signal (z-score),[18],-0.728
same,glycan array binding signal (z-score),[19],-0.477
same,glycan array binding signal (z-score),[20],-0.444
same,glycan array binding signal (z-score),[21],0.326
same,glycan array binding signal (z-score),[22],-0.445
same,glycan array binding signal (z-score),[23],-0.018
same,glycan array binding signal (z-score),[24],-0.556
same,glycan array binding signal (z-score),[25],-0.308
same,glycan array binding signal (z-score),[26],0.241
same,glycan array binding signal (z-score),[27],0.028
same,glycan array binding signal (z-score),[28],0.481
same,glycan array binding signal (z-score),[29],-0.381
same,glycan array binding signal (z-score),[30],-0.313
same,glycan array binding signal (z-score),[31],-0.278
same,glycan array binding signal (z-score),[32],0.377
same,glycan array binding signal (z-score),[33],0.35
same,glycan array binding signal (z-score),[34],0.319
same,glycan array binding signal (z-score),[35],-0.113
same,glycan array binding signal (z-score),[36],-0.142
same,glycan array binding signal (z-score),[37],0.082
same,glycan array binding signal (z-score),[38],-0.678
same,glycan array binding signal (z-score),[39],-0.477
same,glycan array binding signal (z-score),[40],0.784
same,glycan array binding signal (z-score),[41],0.311
same,glycan array binding signal (z-score),[42],-0.57
same,glycan array binding signal (z-score),[43],-0.115
